The other results are listed elsewhere or left out.

Cytotoxicity call and growth inhibition call data for 28 compounds are collected here from the antibiotic and cytotoxicity screens of Wong et al. (2023).

Experiment [1] deals with HSkMC (human skeletal muscle cells). As to the kind of experiment: cytotoxicity call (relative viability < 0.9). Particulars: 10 µM.
Experiment [2] deals with HepG2. As to the kind of experiment: cytotoxicity call (relative viability < 0.9). The note with it: 10 µM.
The subject of experiment [3] is S. aureus RN4220. As to the kind of experiment: growth inhibition call (relative growth <= 0.2). Particulars: 50 µM.

`Cc1ccc(C=Nn2nnnc2N)s1`: the cytotoxicity call in experiment [1] and in experiment [2] was “inactive” each time. In addition, the growth inhibition call in experiment [3] is “inactive”.
For the compound `NC[C@@H]1O[C@H](O[C@H]2[C@@H](O)[C@H](O[C@@H]3[C@@H](O)[C@H](N)C[C@H](N)[C@H]3O[C@@H]3O[C@H](CO)[C@@H](O)C[C@H]3N)O[C@@H]2CO)[C@H](N)[C@@H](O)[C@@H]1O[C@H]1O[C@H](CO)[C@@H](O)[C@H](O)[C@@H]1O`, the cytotoxicity call in experiment [1] and in experiment [2] was “inactive” throughout. Besides, the growth inhibition call in experiment [3] was “inactive”.
On to `C[C@H](CO)N1C[C@H](C)[C@@H](CN(C)C(=O)c2cnccn2)Oc2cc(C#CCC3CCCC3)ccc2S1(=O)=O`, for which the cytotoxicity call in experiment [1] is “inactive”. Also, the cytotoxicity call in experiment [2] was “active”. Besides, the growth inhibition call in experiment [3] is “inactive”.
With `C[C@@H]1CN([C@H](C)CO)C(=O)c2cc(NC(=O)NC3CCCCC3)ccc2O[C@@H](C)CCCCO[C@H]1CN(C)Cc1ccc(C(=O)O)cc1`, the cytotoxicity call in experiment [1] and in experiment [2] was “inactive” each time. In addition, the growth inhibition call in experiment [3] was “inactive”.
Take `Cc1noc(C)c1NC(=O)Nc1ccc2c(c1)C(=O)N([C@@H](C)CO)C[C@H](C)[C@H](CN(C)C(=O)Nc1cccc3ccccc13)O2`: the cytotoxicity call in experiment [1] and in experiment [2] was “inactive” in each case. In addition, in experiment [3], the growth inhibition call is “inactive”.
`O=C(NCCO)c1cccc(C(=O)NCCO)c1`: the cytotoxicity call in experiment [1] and in experiment [2] was “inactive” throughout. Further, the growth inhibition call in experiment [3] was “inactive”.
With `C[C@H]1CN([C@@H](C)CO)C(=O)Cc2cc(NC(=O)Cn3cnnn3)ccc2O[C@H]1CN(C)Cc1ccc(Cl)c(Cl)c1`, the cytotoxicity call in experiment [1] and in experiment [2] was “inactive” throughout. The growth inhibition call in experiment [3] is “inactive”.
In the case of `C[C@H](CO)N1C[C@H](C)[C@H](CN(C)S(=O)(=O)c2cn(C)cn2)Oc2ccc(NS(=O)(=O)c3cccs3)cc2CC1=O`, the cytotoxicity call in experiment [1] and in experiment [2] was “inactive” in each case. Also, the growth inhibition call in experiment [3] was “inactive”.
Consider `CC(C)CC(=O)N1CCC(N)CC1`, for which the cytotoxicity call in experiment [1] and in experiment [2] was “inactive” each time. Also, in experiment [3], the growth inhibition call is “inactive”.
For the compound `C[C@H](CO)N1C[C@H](C)[C@H](CN(C)Cc2ccc(Oc3ccccc3)cc2)Oc2ccc(NC(=O)Nc3ccc(C(F)(F)F)cc3)cc2C1=O`, the cytotoxicity call in experiment [1] and in experiment [2] was “active” each time. Moreover, the growth inhibition call in experiment [3] was “inactive”.
`Cc1ccc(S(=O)(=O)Nc2ccc3c(c2)C(=O)N([C@H](C)CO)C[C@@H](C)[C@@H](CN(C)Cc2ccc4c(c2)OCO4)OCCCC[C@@H](C)O3)cc1`: the cytotoxicity call in experiment [1] was “inactive”. The cytotoxicity call in experiment [2] was “active”. Moreover, in experiment [3], the growth inhibition call is “inactive”.
Turning to `C[C@H]1C/C(=C\N(C)C)C(=O)C1=O`, the cytotoxicity call in experiment [1] is “inactive”. Further, the cytotoxicity call in experiment [2] was “active”. Also, in experiment [3], the growth inhibition call was “inactive”.
For the compound `Cc1ccc(S(=O)(=O)N(C)C[C@@H]2Oc3ccc(NC(=O)NC(C)C)cc3C(=O)N([C@H](C)CO)C[C@@H]2C)cc1`, the cytotoxicity call in experiment [1] and in experiment [2] was “inactive” throughout. In experiment [3], the growth inhibition call was “inactive”.
As for `O=C(C[C@@H]1C[C@@H]2c3cc(NC(=O)C4CCOCC4)ccc3O[C@@H]2[C@H](CO)O1)NCc1ccc2c(c1)OCO2`, the cytotoxicity call in experiment [1] and in experiment [2] was “inactive” throughout. Besides, the growth inhibition call in experiment [3] is “inactive”.
For the compound `CCS(=O)(=O)Nc1ccc2c(c1)C(=O)N(C)[C@H]1CC[C@@H](CC(=O)N3CCN(C)CC3)O[C@H]1CO2`, the cytotoxicity call in experiment [1] and in experiment [2] was “inactive” in each case. The growth inhibition call in experiment [3] is “inactive”.
Consider `CC(=O)NCCCS(=O)(=O)O`, for which the cytotoxicity call in experiment [1] and in experiment [2] was “inactive” each time. Also, the growth inhibition call in experiment [3] was “inactive”.
Regarding `OCCN1CCN(c2ncnc3c2ncn3[C@H]2CN(Cc3ccc(F)cc3)C[C@@H](CO)O2)CC1`, the cytotoxicity call in experiment [1] and in experiment [2] was “inactive” each time. Further, in experiment [3], the growth inhibition call was “inactive”.
With `C[C@H]1CCCCO[C@@H](CN(C)C(=O)Nc2cccc3ccccc23)[C@@H](C)CN([C@@H](C)CO)C(=O)c2cc(NC(=O)C3CCCCC3)ccc2O1`, the cytotoxicity call in experiment [1] and in experiment [2] was “inactive” in each case. In addition, the growth inhibition call in experiment [3] was “inactive”.
In the case of `Cc1noc(C)c1S(=O)(=O)N(C)C[C@H]1Oc2ccc(NC(=O)Cn3cnnn3)cc2CC(=O)N([C@H](C)CO)C[C@@H]1C`, the cytotoxicity call in experiment [1] and in experiment [2] was “inactive” throughout. The growth inhibition call in experiment [3] was “inactive”.
For the compound `COC(=O)CC1C(C)(C)C(=O)C2CC3=C4CC(=O)OC(c5ccoc5)C4(C)CCC3C1(C)C2=O` (centres undefined), the cytotoxicity call in experiment [1] and in experiment [2] was “inactive” in each case. Moreover, the growth inhibition call in experiment [3] was “inactive”.
Regarding `COCC#Cc1ccc2c(c1)O[C@H](CN(C)S(=O)(=O)c1ccc(C)cc1)[C@@H](C)CN([C@@H](C)CO)S2(=O)=O`, the cytotoxicity call in experiment [1] and in experiment [2] was “inactive” in each case. Besides, the growth inhibition call in experiment [3] is “inactive”.
As for `Cc1noc(C)c1S(=O)(=O)N(C)C[C@H]1OCc2cn(nn2)CCCC(=O)N([C@@H](C)CO)C[C@H]1C`, the cytotoxicity call in experiment [1] and in experiment [2] was “inactive” throughout. Further, in experiment [3], the growth inhibition call is “inactive”.
With `CN1C(=O)c2cc(NC(=O)Nc3ccccc3F)ccc2OC[C@H]2O[C@H](CC(=O)NCc3ccc(-c4ccccc4)cc3)CC[C@H]21`, the cytotoxicity call in experiment [1] and in experiment [2] was “inactive” throughout. Also, the growth inhibition call in experiment [3] is “inactive”.
For the compound `C[C@@H]1CN([C@@H](C)CO)C(=O)CCCn2nncc2CO[C@H]1CN(C)S(=O)(=O)c1cn(C)cn1`, the cytotoxicity call in experiment [1] and in experiment [2] was “inactive” in each case. The growth inhibition call in experiment [3] is “inactive”.
`C[C@H](CO)N1C[C@H](C)[C@H](CN(C)C(=O)Nc2ccc(F)cc2)Oc2ccc(NC(=O)Nc3cccc4ccccc34)cc2CC1=O`: the cytotoxicity call in experiment [1] and in experiment [2] was “inactive” throughout. Further, in experiment [3], the growth inhibition call is “inactive”.
Turning to `C[C@H](CO)N1C[C@H](C)[C@H](CN(C)S(C)(=O)=O)Oc2ccc(N(C)C)cc2C1=O`, the cytotoxicity call in experiment [1] and in experiment [2] was “inactive” each time. Also, in experiment [3], the growth inhibition call is “inactive”.
Regarding `COc1ccc(S(=O)(=O)Nc2cccc3c2O[C@H](CN(C)C(=O)Nc2cccc4ccccc24)[C@H](C)CN([C@@H](C)CO)C3=O)cc1`, the cytotoxicity call in experiment [1] and in experiment [2] was “inactive” throughout. In experiment [3], the growth inhibition call was “inactive”.
For the compound `O=C([O-])C1=C(CSc2nnnn2CS(=O)(=O)[O-])CSC2C(NC(=O)C(O)c3ccccc3)C(=O)N12.[Na+].[Na+]` (centres undefined), the cytotoxicity call in experiment [1] and in experiment [2] was “inactive” in each case. For the same compound, in experiment [3], the growth inhibition call is “active”.
